Where “and” joins values, the source holds several entries; their conditions need not be identical. Equal entries are not always repeated. In all, about 350,000 compounds went through this assay and about 31,000 (8.9%) were called active. Inconclusive results, whose numbers are uncertain, are shown with a selection of clear calls. Calls follow the shape of the dose curve; as a rule, active = well fitted inhibition curve with a large enough effect; inconclusive = small, poorly fitted or top-dose-only effect; inactive = no such curve, though single readings can be large or run the other way. A potency beside an inconclusive call is a rough fit, not a confirmed value.
target: Histone-lysine N-methyltransferase EHMT2 (Homo sapiens) (UniProt Q96KQ7); experiment: qHTS Assay for Inhibitors of Histone Lysine Methyltransferase G9a; details: G9a H3K9 monomethylation, AlphaScreen, 2 h; activity, negative = inhibition: at 59 µM (top of the series) unless noted; also: nearly all actives have a fitted effect of over 75% in size
Method in brief: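 G9a (20 nM) preincubated 15 min RT with compounds, then 500 nM biotinylated H3K9 peptide and 20 uM SAM added; 2 h RT reaction. Monomethyl-H3K9 product detected by AlphaScreen with anti-H3K9me1 antibody, streptavidin donor and anti-rabbit IgG acceptor beads.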
% is scaled to controls: 0 for no effect and ±100 for the full control effect; potency is read from the fitted curve at half-maximal effect; tags tell the direction and shape of the fitted curve.

UniProt Q96KQ7, sequence (Q96KQ7 whole entry, looked up): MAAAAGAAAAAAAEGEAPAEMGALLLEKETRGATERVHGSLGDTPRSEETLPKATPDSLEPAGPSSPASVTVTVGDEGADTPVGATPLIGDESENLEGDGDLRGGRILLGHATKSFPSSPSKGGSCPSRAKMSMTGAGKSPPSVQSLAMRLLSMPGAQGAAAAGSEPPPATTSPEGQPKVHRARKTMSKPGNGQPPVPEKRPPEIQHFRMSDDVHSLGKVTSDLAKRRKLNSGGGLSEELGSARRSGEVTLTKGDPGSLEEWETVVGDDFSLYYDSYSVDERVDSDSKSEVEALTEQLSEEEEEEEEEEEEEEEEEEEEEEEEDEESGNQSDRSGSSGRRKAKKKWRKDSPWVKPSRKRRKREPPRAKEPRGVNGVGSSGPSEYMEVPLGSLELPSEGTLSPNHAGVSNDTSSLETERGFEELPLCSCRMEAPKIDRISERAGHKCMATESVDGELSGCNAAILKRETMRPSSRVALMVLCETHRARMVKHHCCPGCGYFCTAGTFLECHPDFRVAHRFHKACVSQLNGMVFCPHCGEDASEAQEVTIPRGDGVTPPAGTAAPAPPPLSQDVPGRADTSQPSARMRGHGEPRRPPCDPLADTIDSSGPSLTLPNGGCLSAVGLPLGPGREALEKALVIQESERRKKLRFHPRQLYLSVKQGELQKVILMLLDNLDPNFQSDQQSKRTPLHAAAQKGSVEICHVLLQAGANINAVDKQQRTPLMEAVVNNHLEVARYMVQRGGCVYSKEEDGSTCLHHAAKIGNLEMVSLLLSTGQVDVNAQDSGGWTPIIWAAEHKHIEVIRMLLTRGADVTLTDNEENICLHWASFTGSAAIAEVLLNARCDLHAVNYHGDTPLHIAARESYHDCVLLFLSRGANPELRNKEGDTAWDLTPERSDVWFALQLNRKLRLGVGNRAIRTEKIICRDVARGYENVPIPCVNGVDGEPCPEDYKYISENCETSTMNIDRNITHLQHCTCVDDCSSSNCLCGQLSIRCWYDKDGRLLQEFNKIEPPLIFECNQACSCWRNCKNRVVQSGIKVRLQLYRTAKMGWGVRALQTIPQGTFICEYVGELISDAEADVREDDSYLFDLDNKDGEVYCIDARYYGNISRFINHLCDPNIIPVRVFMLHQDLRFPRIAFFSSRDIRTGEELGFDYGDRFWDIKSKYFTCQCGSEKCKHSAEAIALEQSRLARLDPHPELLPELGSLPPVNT

Compound | Potency | activity, negative = inhibition
COc1ccc([N+](=O)[O-])cc1NC(=O)CSc1nc(C)cc(C)n1 | active: 2.51 µM | 
Cc1ccc2sc(NNC(=O)C3COc4ccccc4O3)nc2c1C (stereo not given) | active: 31.6 µM | 
CC(/C=N/NC(=O)Cc1cccs1)=C\c1ccco1 | inconclusive: 89.1 µM [inhibitor, single point] | 
COc1cccc(-c2nc(CS(=O)CC(=O)NCCCOC(C)C)c(C)o2)c1 (stereo not given) | active: 44.7 µM | 
Cc1ccc(C)c(S(=O)(=O)c2nnn3c2nc(NCc2ccc4c(c2)OCO4)c2sccc23)c1 |  | inactive: -18.1%
CCN(CC)S(=O)(=O)c1ccc2c(c1)NC(=O)C1CCCN21 (stereo not given) |  | inactive: -6.6% [at 102 µM]
CN(C)c1ccc(NC(=O)Cn2c(SCc3ccccc3F)nc3cccnc32)cc1 | active: 3.16 µM | 
CC(C)Cc1ccc(CN2CCCC(NC(=O)c3ccoc3)C2)cc1 (stereo not given) | inconclusive: 50.1 µM [inhibitor, partial curve, poor fit] | 
COCCOC(=O)C1=C(C)NC2=C(C(=O)CC(C)(C)C2)C1c1ccc(N(C)C)cc1 (stereo not given) | inconclusive: 25.1 µM [inhibitor, single point] | 
O=C1C=CC(=O)N1c1ccc(N2CCCCC2)cc1 | active: 0.562 µM | 
CCC(C)NC(=O)Cn1cc(S(=O)(=O)N2CCN(c3ccccc3F)CC2)c2ccccc2c1=O (stereo not given) | inconclusive: 39.8 µM [inhibitor, partial curve, poor fit] | 
COc1ccc(-n2c(SC)nc3sc4c(c3c2=O)CCN(C)C4)cc1 | inconclusive: 89.1 µM [inhibitor, single point] | 
COc1ccc(C(=O)NNC(=S)NC(=O)c2ccco2)cc1 | inconclusive: 39.8 µM [inhibitor, full curve, poor fit] | 
Cc1c(C)n(C)c2ccc(C(=O)NCCCN3CCCCC3)cc12 | inactive and inconclusive: 44.7 µM [inhibitor, partial curve] | 
CCOC(=O)C1CCN(C(=O)COC(=O)c2nn(C)c(=O)c3ccccc23)CC1 | inconclusive: 89.1 µM [inhibitor, single point] | 
O=c1nc2s/c(=C\c3ccco3)c(=O)n2nc1Cc1ccccc1 |  | inconclusive: -66.5% [inhibitor]
CC(C)c1ccc(/C=N/Nc2ccc(C(=O)O)cc2)cc1 | active: 10 µM | 
O=C(c1ccc2c(Cl)c3c(nc2c1)CCCC3)N1CCN(c2cccc(Cl)c2)CC1 |  | inactive: 2.04%
COc1cc(OC)cc(C(=O)n2cnnc2N)c1 | active: 44.7 µM | 
O=C(O)c1cccc([N+](=O)[O-])c1C(=O)Nc1nc2ccccc2s1 | active: 79.4 µM | 
COc1ccc(S(=O)(=O)N(C)c2ccc(C(=O)N3CCN(C)CC3)cc2)cc1 | active: 50.1 µM | 
Cc1ccc(S(=O)(=O)c2nc(-c3ccc(Cl)cc3)oc2N2CCCCCC2)cc1 | active: 14.1 µM | 
O=C(N/N=C/c1ccc[nH]1)c1ccccc1OCc1ccccc1Cl | inconclusive: 39.8 µM [inhibitor, partial curve, poor fit] | 
O=C(c1ccco1)N1CCN(C(=O)c2sccc2-c2ccccc2)CC1 | inconclusive: 35.5 µM [inhibitor, single point] | 

Compound | Potency | activity, negative = inhibition
COc1ccc(CNc2ncnc3c2c(-c2ccccc2)cn3-c2ccccc2)cc1 |  | inactive: -15%
COC(=O)C(C(=O)Nc1ncccn1)C1CCCCCC1 (stereo not given) |  | inactive: 2.14% [at 12.7 µM]
COC(=O)c1cc(OC)c(OC)cc1NCC(=O)Nc1ccc(C)cc1 | inconclusive: 89.1 µM [inhibitor, single point] | 
CCNc1nc2ccccc2[nH]1 | inconclusive: 56.2 µM [inhibitor, partial curve] | 
COc1cccc(CN(C)C(=O)c2cc(S(=O)(=O)NC3CCCCC3)ccc2C)c1OC | inconclusive: 14.1 µM [inhibitor, single point] | 
COc1ccc(-c2nc(CSCC(=O)N3CCC(C(N)=O)CC3)c(C)o2)cc1OC | active: 44.7 µM | 
CC(=O)c1ccc(NC(=O)CNCc2cccs2)cc1 | inconclusive: 89.1 µM [inhibitor, single point] | 
Cc1ccc(Nc2nc(N/N=C/c3c[nH]c4ccccc34)nc(N3CCOCC3)n2)cc1 | inconclusive: 89.1 µM [inhibitor, single point] | 
COc1ccc(NC(=O)CSC2=C(C#N)C(c3ccco3)C3=C(CCCC3=O)N2)c(OC)c1 (stereo not given) | active: 44.7 µM | 
COc1ccccc1N1CCN(C(=O)c2cn(Cc3ccccc3)nc2-c2cccnc2)CC1 | inconclusive: 25.1 µM [inhibitor, single point] | 
N#Cc1c(N)oc(-c2ccc3c(c2)OCO3)c1-c1ccc2c(c1)OCO2 | active: 50.1 µM | 
O=C(NCC(c1ccco1)N1CCCC1)c1cc(S(=O)(=O)N2CCOCC2)ccc1Cl (stereo not given) |  | inactive: 7.2%
COc1ccc(NC(=O)Cc2csc(C)n2)cc1 |  | inactive: 6.71%
CC(C)(C)C(=O)Nc1c(C(=O)N2CCN(c3ccc(F)cc3)CC2)oc2ccccc12 | inconclusive: 6.31 µM [inhibitor, partial curve, poor fit] | 
CC1=CC(=C(c2ccc(N)cc2)c2ccc(N)cc2)C=CC1=N | inconclusive: 2.82 µM [inhibitor, partial curve, poor fit] | 
C=CCNC(=O)c1ccc(N(Cc2ccccc2)S(C)(=O)=O)cc1 |  | inactive: 29.1%
CCCn1c2ccccc2c2cc(C(=O)O)ccc21 | inconclusive: 70.8 µM [inhibitor, partial curve, poor fit] | 
COc1ccc(NC(=O)CSCC(=O)N(C)CC(=O)Nc2cccc3ccccc23)cc1 | inconclusive: 3.55 µM [inhibitor, partial curve, poor fit] | 
O=C(COC(=O)/C=C/c1ccco1)NCc1ccccc1Cl | active: 44.7 µM | 
CCN1CCN(C(=S)Nc2cc(S(=O)(=O)N(CC)CC)ccc2C)CC1 | inconclusive: 35.5 µM [inhibitor, partial curve] | 
COCCn1c(C)cc(C(=O)COC(=O)CCN2C(=O)c3ccccc3C2=O)c1C | inconclusive: 56.2 µM [inhibitor, partial curve, poor fit] | 
O=C(CC1(O)C(=O)N(CCc2ccccc2)c2ccc(Br)cc21)c1ccccc1O (stereo not given) | inconclusive: 8.91 µM [inhibitor, partial curve] | 
O=C(CSc1n[nH]c(=O)n1C1CC1)NCc1ccccc1 | inconclusive: 79.4 µM [inhibitor, partial curve, poor fit] | 
CC(C)CNC(=S)Nc1ccc(S(N)(=O)=O)cc1 | active: 39.8 µM | 

Compound | Potency | activity, negative = inhibition
CCc1cccc(NC(=O)CSc2ncc3c(n2)-c2ccccc2N(Cc2ccccc2C)S3(=O)=O)c1 |  | inactive: 16.8%
O=C(COc1ccc(F)cc1)Nc1ccc2nc(SCc3ccccc3)sc2c1 |  | inactive: 2.37%
CC1(C)Cc2c(c(N3CCOCC3)nc3sc(C(=O)Nc4ccccc4)c(N)c23)CO1 | active: 28.2 µM | 
Cc1cccc2cc(C3CC(c4ccco4)=NN3C(=O)CCC(=O)O)c(Cl)nc12 (stereo not given) | inconclusive: 39.8 µM [inhibitor, single point] | 
COc1ccc(C(=O)Nc2cc([N+](=O)[O-])ccc2N2CCCC2)cc1 | inconclusive: 63.1 µM [inhibitor, partial curve, poor fit] | 
O=C(c1cc2ccccc2o1)N1CCN(c2cccc(Cl)c2)CC1 |  | inactive: 35.1% [at 102 µM]
CC(NC(=O)CN1CCc2ccccc21)c1ccccc1 (stereo not given) | active: 25.1 µM | 
CC1(C)Cc2nc3[nH]c(=S)[nH]c(=O)c3cc2CO1 | inconclusive: 89.1 µM [inhibitor, single point] | 
Cc1ccc(-n2c(C)cc(/C([O-])=C(/C(=S)Nc3ccc(F)c(Cl)c3)[n+]3ccccc3)c2C)cc1 | inconclusive: 20 µM [inhibitor, single point] | 
COc1ccc(NC(=S)Nc2cccc(S(=O)(=O)N3CCCCC3)c2)cc1 | inconclusive: 6.31 µM [inhibitor, single point] | 
CC1CCN(CCNC(=O)c2ccc(Cn3c(SCc4ccccc4)nc4cccnc43)cc2)CC1 | inconclusive: 25.1 µM [inhibitor, partial curve, poor fit] | 
CCCc1cc(=O)oc2cc(OCC(=O)NCCCN3CCOCC3)c(Cl)cc12 |  | inactive: -20.3% [at 102 µM]
Cc1[nH]n(-c2ccccc2)c(=O)c1C=NCc1ccco1 | inconclusive: 50.1 µM [inhibitor, partial curve] | 
COc1ccc(C(CNC(=O)c2ccc(OCc3ccccc3)cc2)N2CCOCC2)cc1 (stereo not given) |  | inactive: 8.8% [at 12.7 µM]
CC(C)c1nn2c(=O)cc(COC(=O)c3ccc(NC(=O)CCc4ccccc4)cc3)nc2s1 |  | inactive: 4.12% [at 12.7 µM]
N#Cc1ccc(CSc2nnc(-c3c[nH]c4ccccc34)n2-c2ccccc2)cc1 | inconclusive: 28.2 µM [inhibitor, full curve] | 
CN(C)c1nc(N)c2ncc(=S)[nH]c2n1 | active: 1.78 µM | 
C#CCOCCOCCOCCNc1nc(N2CCN(C(=O)[C@H]([C@@H](C)O)n3cc(CCCCN)nn3)CC2)nc(N2CCN(C(=O)[C@H](CCCCN)n3cc(CC(C)O)nn3)CC2)n1 (stereo not given in full) |  | inactive: -12.7% [at 2.33 µM]
Cc1ccc(NC(=O)CSCC(=O)N(C)CC(=O)Nc2cccc3ccccc23)cc1 |  | inactive: 14.6%
Cc1cc(Cl)ccc1-n1c(-c2cccnc2)n[nH]c1=S | active: 10 µM | 
CCOC(=O)C(=O)Nc1cc(C(=O)OC)cc(C(=O)OC)c1 | inconclusive: 89.1 µM [inhibitor, partial curve, poor fit] | 
Cc1cc(O)cc2c1C(=O)/C(=C/c1ccco1)O2 | inconclusive: 1 µM [inhibitor, partial curve, poor fit] | 
